Source: PMC7819943, “Rice protein-binding microarrays: a tool to detect cis-acting elements near promoter regions in rice”
Some of the results follow.

Each sequence was assayed against T1, OsWOX13 (Oryza sativa, UniProt Q5QMM3 1-267) (assay: protein-binding microarray (RPBM); PBS, 2% BSA, 51.3 ng/ul salmon testes DNA, 50 uM zinc acetate, 200 nM TF, 25 C, 1 h; high values mean tight binding). Conditions: protein: recombinant; tags: N-terminal polyhistidine and DsRed monomer fusion (pET32a); label: CyDye5-dUTP incorporated in the synthesized complementary strand; 3' TTTTT single-stranded linker to array surface; dsDNA, one strand shown.
T1 sequence: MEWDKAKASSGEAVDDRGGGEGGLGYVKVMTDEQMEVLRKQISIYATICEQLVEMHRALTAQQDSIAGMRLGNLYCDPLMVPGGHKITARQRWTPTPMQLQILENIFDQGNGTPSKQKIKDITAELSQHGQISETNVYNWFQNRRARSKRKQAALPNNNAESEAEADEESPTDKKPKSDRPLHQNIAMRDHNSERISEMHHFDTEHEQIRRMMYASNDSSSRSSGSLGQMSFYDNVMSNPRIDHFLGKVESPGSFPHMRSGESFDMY
Outline: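 The binding signal is fluorescence intensity per array feature (arbitrary units). Readings came from an Axon 4000B scanner after a washed, 2% BSA-blocked, double-stranded custom Agilent array had been incubated for 1 h at 25 °C with 200 nM protein and 50 µM zinc acetate. The protein was a Ni–NTA-purified transcription factor fused N-terminally to polyhistidine and DsRed, expressed in E. coli BL21-CodonPlus.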
In the case of “ATTTTACATTTTCTGATTGCTTTACTCGGCCATCACATGGCGGAGTCACCTAGTGCAG”, the binding signal is reported as 23100 fluorescence intensity (a.u.).
For “GGAGATAATGGACTGTTCATCATTTCATTGCTATGAAGGGCGGAGTCACCTAGTGCAG”, the binding signal was 17400 fluorescence intensity (a.u.).
For “CAAAATGACAATAATTTGTATGTAAGCAGAAGACAGAAAGCGGAGTCACCTAGTGCAG”, the binding signal was 22200 fluorescence intensity (a.u.).
“TATTAATACTCAATTAATCATGCGCTAATGAATCGCTCCTCGGAGTCACCTAGTGCAG” was tested, and the binding signal was 19300 fluorescence intensity (a.u.).
“TCATAGCAATTAAAATTAACACCATATTTGTTCCGGAGAACGGAGTCACCTAGTGCAG” was tested, and the binding signal was 4500 fluorescence intensity (a.u.).
In the case of “TCCGTGTGATACTATCAAATTAGATTAGAAACACAGCGTGCGGAGTCACCTAGTGCAG”, the binding signal is reported as 8520 fluorescence intensity (a.u.).
With “CTTCAAATTATCTATATTTAATTTAATAACACATTTATATCGGAGTCACCTAGTGCAG” the binding signal was 18900 fluorescence intensity (a.u.).
With “TTGCTTGACATGAAATCAAGTACACTTGCAAAGCACACACCGGAGTCACCTAGTGCAG” the binding signal was 4290 fluorescence intensity (a.u.).
“GCTTTGGGGCTAATTTGATTTCAAGACAATTTGGTATTAGCGGAGTCACCTAGTGCAG” was tested, and the binding signal was 4020 fluorescence intensity (a.u.).
With “AAATGATTAAAGGAAAATAACTTGTACGGTCAGGGAGGCACGGAGTCACCTAGTGCAG” the binding signal was 11400 fluorescence intensity (a.u.).
With “TCTGTATGGGTGATTTGCCTAAACAAGACAAGCAAAAGTGCGGAGTCACCTAGTGCAG” the binding signal was 4480 fluorescence intensity (a.u.).
In the case of “AAAATTTAAATTTATAACTTTAATTTTAGAGTTTATGTTTCGGAGTCACCTAGTGCAG”, the binding signal is reported as 25400 fluorescence intensity (a.u.).
In the case of “GATGATTACACTGTTAATCCGCTTTTAATCTCTGCCATTGCGGAGTCACCTAGTGCAG”, the binding signal is reported as 34200 fluorescence intensity (a.u.).
In the case of “GAAAATTATTAAATAGTAATCATAGGACGAAAACTTTTGTCGGAGTCACCTAGTGCAG”, the binding signal is reported as 16300 fluorescence intensity (a.u.).
“AGCACTAATTTTCATGAAGAGCTGTGACTATAGTTATACACGGAGTCACCTAGTGCAG” was tested, and the binding signal was 5360 fluorescence intensity (a.u.).
With “GGCGCACTGATTGTTCATGATTGATGCAGTGATCCGGGCACGGAGTCACCTAGTGCAG” the binding signal was 59600 fluorescence intensity (a.u.).
“AACAAGTGTTAACACAGCCTAATTAGCCCCACAAAGGTTCCGGAGTCACCTAGTGCAG” was tested, and the binding signal was 7030 fluorescence intensity (a.u.).
With “AGTAGATTGCAAATCGATTTTCGTTTTGGAGACATCATGGCGGAGTCACCTAGTGCAG” the binding signal was 19600 fluorescence intensity (a.u.).
In the case of “TGCCGTGGGATGGGGTTGCGGGAGGAGGAGGGTGCTACTACGGAGTCACCTAGTGCAG”, the binding signal is reported as 4050 fluorescence intensity (a.u.).
For “AACAATATTGATTTCTTGAACACCAGGTAGATATTATTGACGGAGTCACCTAGTGCAG”, the binding signal was 7940 fluorescence intensity (a.u.).
With “CATAATTGCTTACCCCATGAAGCTGCTGCACATCTATTATCGGAGTCACCTAGTGCAG” the binding signal was 29900 fluorescence intensity (a.u.).
“GAAAATGGATTTAAATCCGGCCACTACATTTGAACCGGAACGGAGTCACCTAGTGCAG” was tested, and the binding signal was 3340 fluorescence intensity (a.u.).
“ATGCATGTTAATTAGTCTGTCACTGATCACTTCATCCCATCGGAGTCACCTAGTGCAG” was tested, and the binding signal was 23300 fluorescence intensity (a.u.).
For “AACTAAACACACATTGACTGTAGCTTCAGTTGAAGAACCGCGGAGTCACCTAGTGCAG”, the binding signal was 5680 fluorescence intensity (a.u.).
With “TAAACAATATATACCAATTTAATCAACGGTCGAGAAATACCGGAGTCACCTAGTGCAG” the binding signal was 3150 fluorescence intensity (a.u.).
“ATCACCTCTGCATTGATTGGCTCGAGGTATTAAGGGTTATCGGAGTCACCTAGTGCAG” was tested, and the binding signal was 16300 fluorescence intensity (a.u.).
With “TCTAATAGAATGATTAGTTGAATATAAACTTATCTTTTAACGGAGTCACCTAGTGCAG” the binding signal was 8710 fluorescence intensity (a.u.).
In the case of “TGGGAACAGACATTAATTATGCATAACATGTTTATTGATACGGAGTCACCTAGTGCAG”, the binding signal is reported as 12600 fluorescence intensity (a.u.).
In the case of “TCTTTAAAATTTTATAACTGGTTTATAGGTTGCTATTGTACGGAGTCACCTAGTGCAG”, the binding signal is reported as 5270 fluorescence intensity (a.u.).
For “TGATCTGTTACATGTAAATTGTAGTGGACTGATTTAGGCCCGGAGTCACCTAGTGCAG”, the binding signal was 5900 fluorescence intensity (a.u.).
In the case of “ATCACGTCATCATTAGTGCTAATCACATGGTTAGCGACGGCGGAGTCACCTAGTGCAG”, the binding signal is reported as 13900 fluorescence intensity (a.u.).
For “GCGTCTAATCACCACGATTAAGCTCGTCGTAATTACCATCCGGAGTCACCTAGTGCAG”, the binding signal was 13700 fluorescence intensity (a.u.).
In the case of “TAGCTTGATTAGCTTAGCTTAAGTAGACAAGCCACTTTAGCGGAGTCACCTAGTGCAG”, the binding signal is reported as 31300 fluorescence intensity (a.u.).
“TCCTCAAGATGACTGTGAATTATGGTTTCGAGTGTGTGTGCGGAGTCACCTAGTGCAG” was tested, and the binding signal was 4060 fluorescence intensity (a.u.).
With “TCTAGACTAATTAATAAGCTTTATAGTAGTAAGAAGCATCCGGAGTCACCTAGTGCAG” the binding signal was 20500 fluorescence intensity (a.u.).
For “TTATTATGAAAATTATTGATTGAGCTGTCATAATATAGGACGGAGTCACCTAGTGCAG”, the binding signal was 17700 fluorescence intensity (a.u.).
For “GTGATTTTATGAGTTATAACTTATAAATGGATATGAGACTCGGAGTCACCTAGTGCAG”, the binding signal was 6130 fluorescence intensity (a.u.).
“AAAGATTGCCGAGTTTAATTGCAATCAATTACGGGAAGATCGGAGTCACCTAGTGCAG” was tested, and the binding signal was 52900 fluorescence intensity (a.u.).
In the case of “AAACAATTATTCAATATTCATCATTTGGCTCAATCTAGTCCGGAGTCACCTAGTGCAG”, the binding signal is reported as 5020 fluorescence intensity (a.u.).
With “ACCAATTCAAATTTCGATTAAAATCAATGAAACATAAACCCGGAGTCACCTAGTGCAG” the binding signal was 3610 fluorescence intensity (a.u.).
“ACTAAATTACCGTGTAGCATTTGAGATTTTAACATCCATTCGGAGTCACCTAGTGCAG” was tested, and the binding signal was 15000 fluorescence intensity (a.u.).
In the case of “CCCCTATTAAATTATGTGCTGGCACCATTCCCAGCAAAGGCGGAGTCACCTAGTGCAG”, the binding signal is reported as 4570 fluorescence intensity (a.u.).
